In the supplement of paper PMC4604168 (melanoma cell lines):
The list shows a part of the results. Many values rest on one well or one pass, so single values are uncertain.

How the values were obtained:
Assay in all cases: cell count relative to DMSO control; melanoma cells; higher = more viable cells
Conditions in all cases: library dose: low library concentration; 72 h
COLO792 = system: COLO792
COLO800 = system: COLO800
COLO829 = system: COLO829
G361 = system: G361
IPC-298 = system: IPC-298
IST-MEL1 = system: IST-MEL1
LB2518-MEL = system: LB2518-MEL
LOXIMVI = system: LOXIMVI
MEL-HO = system: MEL-HO
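Also: cell number obtained by counting DAPI-stained nuclei in high-throughput microscope images with image analysis software, screen run in 1,536-well plates.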

| Structure (SMILES) | cell count (COLO792) [%] | cell count (COLO800) [%] | cell count (COLO829) [%] | cell count (G361) [%] | cell count (IPC-298) [%] | cell count (IST-MEL1) [%] | cell count (LB2518-MEL) [%] | cell count (LOXIMVI) [%] | cell count (MEL-HO) [%] |
| --- | --- | --- | --- | --- | --- | --- | --- | --- | --- |
| O=C(Nc1cc(C(F)(F)F)cc(C(F)(F)F)c1)c1cc(Cl)ccc1O + CC1(C)NC(=O)N(c2ccc([N+](=O)[O-])c(C(F)(F)F)c2)C1=O [nilutamide] (first compound 0.016 µM, partner dose 1 µM) | 91 | 105 | 97.4 | 88.5 | 93.5 | 87.6 | 87.4 | 92.3 | 102 |
| O=C(O)[C@@H]1[O][Sb](=[O])([O][Sb]2(=[O])[O][C@H]([C@H](O)CO)[C@H](O)[C@H](C(=O)O)[O]2)[O][C@H]([C@H](O)CO)[C@@H]1O (stereo partly specified) [stibogluconate] + Cc1cc(N2CCOCC2)cc2[nH]c(-c3c(NC[C@@H](O)c4cccc(Cl)c4)cc[nH]c3=O)nc12 [BMS536924] (first compound 2 µM, partner dose 0.2 µM) | 86.7 | 46.2 | 124 | 102 | 104 | 104 | 97 | 81.5 | 99.9 |
| O=C(O)[C@@H]1[O][Sb](=[O])([O][Sb]2(=[O])[O][C@H]([C@H](O)CO)[C@H](O)[C@H](C(=O)O)[O]2)[O][C@H]([C@H](O)CO)[C@@H]1O (stereo partly specified) [stibogluconate] + CCN(CC)CCCCNc1ncc2cc(-c3cc(OC)cc(OC)c3)c(NC(=O)NC(C)(C)C)nc2n1 [PD173074] (first compound 2 µM, partner dose 0.1 µM) | 96.5 | 102 | 104 | 90.8 | 100 | 100 | 96 | 95.6 | 96 |
| O=C(Nc1cc(C(F)(F)F)cc(C(F)(F)F)c1)c1cc(Cl)ccc1O + COc1cc2c(Oc3ccc4[nH]c(C)cc4c3F)ncnc2cc1OCCCN1CCCC1 [cediranib] (first compound 0.016 µM, partner dose 0.4 µM) | 85.5 | 84.8 | 84 | 105 | 94.2 | 92.9 | 82.3 | 129 | 89.3 |
| O=C(Nc1cc(C(F)(F)F)cc(C(F)(F)F)c1)c1cc(Cl)ccc1O + Cn1cc(/C=C2\C(=O)Nc3cccnc32)c2ccccc21 [GW441756] (first compound 0.016 µM, partner dose 0.4 µM) | 115 | 76.6 | 126 | 113 | 100 | 97.3 |  | 97.8 | 104 |
| O=C(O)c1ccc2c(c1)nc(Nc1cccc(Cl)c1)c1ccncc12 + c1cc(-c2cnn3cc(-c4ccc(OCCN5CCCCC5)cc4)cnc23)ccn1 [Dorsomorphin] (first compound 0.4 µM, partner dose 0.4 µM) | 97.2 | 87 | 99.4 | 74 | 88.8 | 105 |  | 67.3 | 90 |
| O=C(O)c1ccc2c(c1)nc(Nc1cccc(Cl)c1)c1ccncc12 + CCc1ccc(CCOc2ccc(CC3SC(=O)NC3=O)cc2)nc1 [pioglitazone] (first compound 0.4 µM, partner dose 2 µM) | 108 | 89.1 | 86.3 | 101 | 103 | 102 | 112 | 74.4 | 101 |
| Cn1nnc2c(C(N)=O)ncn2c1=O [temozolomide] + Cc1ccc(NC(=O)c2cccc(N(C)C)c2)cc1NC(=O)c1ccc(O)cc1 [ZM336372] (first compound 2 µM, partner dose 2 µM) | 108 | 92.8 | 110 | 123 | 76.2 | 96.4 | 86.5 | 80 | 96.1 |
| O=C(O)c1ccc2c(c1)nc(Nc1cccc(Cl)c1)c1ccncc12 + OCCn1cc(-c2cnc3nnn(Cc4ccc5ncccc5c4)c3n2)cn1 [PF04217903] (first compound 0.4 µM, partner dose 1 µM) | 108 | 98.5 | 100 | 95.1 | 92.1 | 111 | 109 | 75.7 | 90.1 |
| Cc1cc(N2CCOCC2)cc2[nH]c(-c3c(NC[C@@H](O)c4cccc(Cl)c4)cc[nH]c3=O)nc12 + COc1cc2c(Oc3ccc4[nH]c(C)cc4c3F)ncnc2cc1OCCCN1CCCC1 [cediranib] (first compound 0.2 µM, partner dose 0.4 µM) | 72.3 | 54.3 | 104 | 83.3 | 89.9 | 105 | 96 | 114 | 102 |
| O=C(Nc1cc(C(F)(F)F)cc(C(F)(F)F)c1)c1cc(Cl)ccc1O + O=C1NC(=O)/C(=C/c2ccc(-c3ccc(F)cc3O)o2)S1 [AS252424] (first compound 0.016 µM, partner dose 1 µM) | 103 | 99.9 | 101 | 102 | 92.7 | 103 | 88.2 | 165 | 99.1 |
| O=C(O)c1ccc2c(c1)nc(Nc1cccc(Cl)c1)c1ccncc12 + O=C(O)C(=O)Nc1sc2c(c1C(=O)O)CCNC2 [TCS401] (first compound 0.4 µM, partner dose 1.66667 µM) | 96.6 | 90 | 90.6 | 83.8 | 93.7 | 114 | 122 | 99.9 | 92.5 |
| O=C(O)c1ccc2c(c1)nc(Nc1cccc(Cl)c1)c1ccncc12 + O=c1cc(-c2cccc3c2Sc2ccccc2S3)oc(N2CCOCC2)c1 [KU55933] (first compound 0.4 µM, partner dose 1 µM) | 87.5 | 99.4 | 110 | 85.8 | 92.9 | 101 | 124 | 91.2 | 86.2 |
| O=C(O)c1ccc2c(c1)nc(Nc1cccc(Cl)c1)c1ccncc12 + CC(C)CCN1c2nc(Nc3cc(F)c(O)c(F)c3)ncc2N(C)C(=O)C1C [BID1870] (first compound 0.4 µM, partner dose 0.2 µM) | 82.4 | 83.1 | 99.3 | 89 | 90.4 | 96.2 | 99.6 | 63.6 | 77.3 |
| O=C(O)[C@@H]1[O][Sb](=[O])([O][Sb]2(=[O])[O][C@H]([C@H](O)CO)[C@H](O)[C@H](C(=O)O)[O]2)[O][C@H]([C@H](O)CO)[C@@H]1O (stereo partly specified) [stibogluconate] + Cn1cncc1[C@@](N)(c1ccc(Cl)cc1)c1ccc2c(c1)c(-c1cccc(Cl)c1)cc(=O)n2C [tipifarnib] (first compound 2 µM, partner dose 0.01 µM) | 93.9 | 108 | 94.2 | 99.4 | 92.5 | 92.5 |  | 99.6 | 116 |
| O=C(O)c1ccc2c(c1)nc(Nc1cccc(Cl)c1)c1ccncc12 + COc1cc2ncnc(Nc3ccc(Oc4ccccc4)cc3)c2cc1OC [SrcI1] (first compound 0.4 µM, partner dose 2 µM) | 82.6 | 135 | 91 | 97 | 88.2 | 102 | 118 | 67.3 | 92.1 |
| O=C(Nc1cc(C(F)(F)F)cc(C(F)(F)F)c1)c1cc(Cl)ccc1O + CC(C)CCN1c2nc(Nc3cc(F)c(O)c(F)c3)ncc2N(C)C(=O)C1C [BID1870] (first compound 0.016 µM, partner dose 0.2 µM) | 91.8 | 135 | 113 | 109 | 103 | 94.3 | 94 | 127 | 103 |
| O=C(O)[C@@H]1[O][Sb](=[O])([O][Sb]2(=[O])[O][C@H]([C@H](O)CO)[C@H](O)[C@H](C(=O)O)[O]2)[O][C@H]([C@H](O)CO)[C@@H]1O (stereo partly specified) [stibogluconate] + O=S(=O)(c1ccccc1)N(CC(F)(F)F)c1ccc(C(O)(C(F)(F)F)C(F)(F)F)cc1 [T0901317] (first compound 2 µM, partner dose 1.4 µM) | 107 | 143 | 74.3 | 86.3 | 90.1 | 111 |  | 72 | 83 |
| O=C(O)c1ccc2c(c1)nc(Nc1cccc(Cl)c1)c1ccncc12 + NC(=O)Nc1cc(-c2cccc(F)c2)sc1C(=O)N[C@H]1CCCNC1 [AZD7762] (first compound 0.4 µM, partner dose 0.02 µM) | 104 | 93.2 | 78 | 102 | 94.7 | 103 | 145 | 77.9 | 81.7 |
| Cn1nnc2c(C(N)=O)ncn2c1=O [temozolomide] + CC(C)(C)c1cnc(CSc2cnc(NC(=O)C3CCNCC3)s2)o1 [SNS-032] (first compound 2 µM, partner dose 0.01 µM) | 81.3 | 74 | 93 | 103 | 95.1 | 93 | 94 | 55.8 | 116 |
| O=C(Nc1cc(C(F)(F)F)cc(C(F)(F)F)c1)c1cc(Cl)ccc1O + Oc1nc(-c2ccc(C(F)(F)F)cc2)nc2c1CSCC2 [XAV939] (first compound 0.016 µM, partner dose 2 µM) | 94.1 | 99.1 | 116 | 87.5 | 96.2 | 86.3 | 89.5 | 90.1 | 93.9 |
| O=C(O)[C@@H]1[O][Sb](=[O])([O][Sb]2(=[O])[O][C@H]([C@H](O)CO)[C@H](O)[C@H](C(=O)O)[O]2)[O][C@H]([C@H](O)CO)[C@@H]1O (stereo partly specified) [stibogluconate] + COc1cc2ncnc(Nc3ccc(Oc4ccccc4)cc3)c2cc1OC [SrcI1] (first compound 2 µM, partner dose 2 µM) | 102 | 101 | 78.2 | 104 | 93.3 | 98.6 |  | 107 | 102 |
| O=C(Nc1cc(C(F)(F)F)cc(C(F)(F)F)c1)c1cc(Cl)ccc1O + Cc1cc([N+](=O)[O-])ccc1NS(=O)(=O)c1cc(Cl)ccc1Cl [FH535] (first compound 0.016 µM, partner dose 1 µM) | 92.4 | 176 | 103 | 81.4 | 81.4 | 76.3 |  | 105 | 97.6 |
